Reference: the supplement of paper PMC8728848
The list shows a part of the results.

Legend:
Experiment in all cases: glycan array binding signal (z-score within array); higher = stronger binding
Settings in all cases: glycan notation: IUPAC condensed, linker removed
[1] = target: GlcNAc(b1-3)Gal(b1-4)GlcNAc(b1-3)Gal(b1-4)GlcNAc(b1-2)Man(a1-3)[GlcNAc(b1-3)Gal(b1-4)GlcNAc(b1-3)Gal(b1-4)GlcNAc(b1-2)Man(a1-6)]Man(b1-4)GlcNAc(b1-4)[Fuc(a1-6)]GlcNAc
Summary of the method: (§1)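 From the Consortium for Functional Glycomics database, 3228 arrays were curated, keeping only those whose protein sequence was available. Binding is given as a within-array Z-score averaged across arrays sharing a protein sequence and across linkers. Negative Z-scores can be read as non-binding.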

[2] = target: GlcNAc(b1-3)Gal(b1-4)GlcNAc(b1-3)Gal(b1-4)GlcNAc(b1-2)[GlcNAc(b1-3)Gal(b1-4)GlcNAc(b1-3)Gal(b1-4)GlcNAc(b1-6)]Man(a1-6)[GlcNAc(b1-3)Gal(b1-4)GlcNAc(b1-3)Gal(b1-4)GlcNAc(b1-2)Man(a1-3)]Man(b1-4)GlcNAc(b1-4)[Fuc(a1-6)]GlcNAc
Summary of the method: as §1

[3] = target: GlcNAc(b1-3)Gal(b1-4)GlcNAc(b1-3)Gal(b1-4)GlcNAc(b1-3)Gal(b1-4)GlcNAc(b1-2)Man(a1-3)[GlcNAc(b1-3)Gal(b1-4)GlcNAc(b1-3)Gal(b1-4)GlcNAc(b1-3)Gal(b1-4)GlcNAc(b1-2)Man(a1-6)]Man(b1-4)GlcNAc(b1-4)GlcNAc
Summary of the method: as §1

[4] = target: GlcNAc(b1-3)Gal(b1-4)GlcNAc(b1-3)Gal(b1-4)GlcNAc(b1-3)Gal(b1-4)GlcNAc(b1-2)Man(a1-3)[GlcNAc(b1-3)Gal(b1-4)GlcNAc(b1-3)Gal(b1-4)GlcNAc(b1-3)Gal(b1-4)GlcNAc(b1-2)Man(a1-6)]Man(b1-4)GlcNAc(b1-4)[Fuc(a1-6)]GlcNAc
Summary of the method: as §1

[5] = target: GlcNAc(b1-3)Gal(b1-4)GlcNAc(b1-3)Gal(b1-4)GlcNAc(b1-3)Gal(b1-4)GlcNAc(b1-2)[GlcNAc(b1-3)Gal(b1-4)GlcNAc(b1-3)Gal(b1-4)GlcNAc(b1-3)Gal(b1-4)GlcNAc(b1-6)]Man(a1-6)[GlcNAc(b1-3)Gal(b1-4)GlcNAc(b1-3)Gal(b1-4)GlcNAc(b1-3)Gal(b1-4)GlcNAc(b1-2)Man(a1-3)]Man(b1-4)GlcNAc(b1-4)[Fuc(a1-6)]GlcNAc
Summary of the method: as §1

[6] = target: GlcNAc(b1-3)Gal(b1-4)GlcNAc(b1-3)Gal(b1-4)GlcNAc(b1-3)Gal(b1-4)GlcNAc(b1-3)Gal(b1-4)GlcNAc(b1-2)Man(a1-3)[GlcNAc(b1-3)Gal(b1-4)GlcNAc(b1-3)Gal(b1-4)GlcNAc(b1-3)Gal(b1-4)GlcNAc(b1-3)Gal(b1-4)GlcNAc(b1-2)Man(a1-6)]Man(b1-4)GlcNAc(b1-4)GlcNAc
Summary of the method: as §1

[7] = target: GlcNAc(b1-3)Gal(b1-4)GlcNAc(b1-3)Gal(b1-4)GlcNAc(b1-3)Gal(b1-4)GlcNAc(b1-3)Gal(b1-4)GlcNAc(b1-2)Man(a1-3)[GlcNAc(b1-3)Gal(b1-4)GlcNAc(b1-3)Gal(b1-4)GlcNAc(b1-3)Gal(b1-4)GlcNAc(b1-3)Gal(b1-4)GlcNAc(b1-2)Man(a1-6)]Man(b1-4)GlcNAc(b1-4)[Fuc(a1-6)]GlcNAc
Summary of the method: as §1

[8] = target: GlcNAc(b1-3)Gal(b1-4)GlcNAc(b1-3)Gal(b1-4)GlcNAc(b1-3)Gal(b1-4)GlcNAc(b1-3)Gal(b1-4)GlcNAc(b1-2)[GlcNAc(b1-3)Gal(b1-4)GlcNAc(b1-3)Gal(b1-4)GlcNAc(b1-3)Gal(b1-4)GlcNAc(b1-3)Gal(b1-4)GlcNAc(b1-6)]Man(a1-6)[GlcNAc(b1-3)Gal(b1-4)GlcNAc(b1-3)Gal(b1-4)GlcNAc(b1-3)Gal(b1-4)GlcNAc(b1-3)Gal(b1-4)GlcNAc(b1-2)Man(a1-3)]Man(b1-4)GlcNAc(b1-4)[Fuc(a1-6)]GlcNAc
Summary of the method: as §1

[9] = target: GlcNAc(b1-3)Gal(b1-4)GlcNAc(b1-3)Gal(b1-4)GlcNAc(b1-3)GalNAc
Summary of the method: as §1

[10] = target: GlcNAc(b1-3)Gal(b1-4)GlcNAc(b1-3)GalNAc
Summary of the method: as §1

[11] = target: GlcNAc(b1-3)Gal(b1-4)GlcNAc(b1-3)[GlcNAc(b1-3)Gal(b1-4)GlcNAc(b1-3)]GalNAc
Summary of the method: as §1

[12] = target: GlcNAc(b1-3)Gal(b1-4)GlcNAc(b1-6)[Gal(b1-3)]GalNAc
Summary of the method: as §1

[13] = target: GlcNAc(b1-3)Gal(b1-4)GlcNAc(b1-6)[GlcNAc(b1-3)Gal(b1-3)]GalNAc
Summary of the method: as §1

[14] = target: GlcNAc(b1-3)Gal(b1-4)GlcNAc(b1-6)[GlcNAc(b1-3)]Gal(b1-4)GlcNAc
Summary of the method: as §1

[15] = target: GlcNAc(b1-3)GalNAc
Summary of the method: as §1

[16] = target: GlcNAc(b1-3)Man
Summary of the method: as §1

[17] = target: GlcNAc(b1-3)[GlcNAc(b1-4)][GlcNAc(b1-6)]GlcNAc
Summary of the method: as §1

[18] = target: GlcNAc(b1-3)[GlcNAc(b1-6)]Gal(b1-4)GlcNAc
Summary of the method: as §1

[19] = target: GlcNAc(b1-3)[GlcNAc(b1-6)]GalNAc
Summary of the method: as §1

[20] = target: GlcNAc(b1-4)Gal(b1-4)GlcNAc
Summary of the method: as §1

[21] = target: GlcNAc(b1-4)GlcNAc
Summary of the method: as §1

[22] = target: GlcNAc(b1-4)GlcNAc(b1-4)GlcNAc
Summary of the method: as §1

[23] = target: GlcNAc(b1-4)GlcNAc(b1-4)GlcNAc(b1-4)GlcNAc(b1-4)GlcNAc
Summary of the method: as §1

[24] = target: GlcNAc(b1-4)GlcNAc(b1-4)GlcNAc(b1-4)GlcNAc(b1-4)GlcNAc(b1-4)GlcNAc
Summary of the method: as §1

[25] = target: GlcNAc(b1-4)[GlcNAc(b1-6)]GalNAc
Summary of the method: as §1

[26] = target: GlcNAc(b1-6)Gal(b1-4)GlcNAc
Summary of the method: as §1

[27] = target: GlcNAc(b1-6)GalNAc
Summary of the method: as §1

[28] = target: GlcNAc6S(b1-3)Gal(b1-4)GlcNAc
Summary of the method: as §1

[29] = target: Kdn(a2-3)Gal(b1-3)GalNAc
Summary of the method: as §1

[30] = target: Kdn(a2-3)Gal(b1-3)GlcNAc
Summary of the method: as §1

[31] = target: Kdn(a2-3)Gal(b1-4)Glc
Summary of the method: as §1

[32] = target: Kdn(a2-3)Gal(b1-4)GlcNAc
Summary of the method: as §1

[33] = target: Kdn(a2-3)Gal(b1-4)[Fuc(a1-3)]GlcNAc
Summary of the method: as §1

[34] = target: Kdn(a2-6)Gal(b1-4)GlcNAc
Summary of the method: as §1

[35] = target: Man(a1-2)Man(a1-2)Man(a1-3)Man
Summary of the method: as §1

[36] = target: Man(a1-2)Man(a1-2)Man(a1-6)[Man(a1-3)]Man
Summary of the method: as §1

[37] = target: Man(a1-2)Man(a1-3)Man
Summary of the method: as §1

[38] = target: Man(a1-2)Man(a1-3)[Man(a1-2)Man(a1-6)]Man
Summary of the method: as §1

B1: PX14375C-bth-509-28-509 (Bacteroides thetaiotaomicron) (protein)
chain: RSPQGQFTEDDNPNALVNGKIYNVYTMMRSFDITAGTPAIAIHYLRSEDSEKGSIPSDGSDVAEMYDDFLYTPTNGLLGSYWGKNYAIIYQCNDILDAIAEKETAGQTETEDIINKGEASFFRAYCYFNLVRAFGEVPLVTYKINDASEANIPKTTADKIYEQIDTDLKTAEESLPETWSTEYTGRLTWGAARSLHARTYMMRSDWDNMYKASTDVINKGLYNLKTPYNEIFTDDGENSGGSIFELQCTATAALPQSDVIGSQFCEVQGVRGAGQWDLGWGWHMATQLMADAYETGDPRKNATLLYFRKTDDEPITPENTNEPYGESPISPAMGAYFNKKAYTDPALRKEYTNKGFWVNIRLIRYSDVVLMAAEAANEKNIPGEAVDYLEMVRARARGTNTNILPKITTNDQGELREAIRHERRVELGLEPDRFYDLVRWGIASEVLHAAGKVNYQDKNALLPLPQSEIDKSKGVLVQNPDY
- glycan array binding signal (z-score) [1]: -0.055
- glycan array binding signal (z-score) [2]: 0.02
- glycan array binding signal (z-score) [3]: -0.148
- glycan array binding signal (z-score) [4]: 0.036
- glycan array binding signal (z-score) [5]: -0.11
- glycan array binding signal (z-score) [6]: -0.264
- glycan array binding signal (z-score) [7]: -0.099
- glycan array binding signal (z-score) [8]: -0.216
- glycan array binding signal (z-score) [9]: -0.343
- glycan array binding signal (z-score) [10]: -0.187
- glycan array binding signal (z-score) [11]: 0.003
- glycan array binding signal (z-score) [12]: -0.076
- glycan array binding signal (z-score) [13]: 0.151
- glycan array binding signal (z-score) [14]: -0.159
- glycan array binding signal (z-score) [15]: -0.251
- glycan array binding signal (z-score) [16]: -0.251
- glycan array binding signal (z-score) [17]: -0.414
- glycan array binding signal (z-score) [18]: -0.072
- glycan array binding signal (z-score) [19]: -0.462
- glycan array binding signal (z-score) [20]: -0.275
- glycan array binding signal (z-score) [21]: -0.223
- glycan array binding signal (z-score) [22]: -0.393
- glycan array binding signal (z-score) [23]: 0.127
- glycan array binding signal (z-score) [24]: -0.291
- glycan array binding signal (z-score) [25]: -0.315
- glycan array binding signal (z-score) [26]: -0.285
- glycan array binding signal (z-score) [27]: -0.359
- glycan array binding signal (z-score) [28]: 2.16
- glycan array binding signal (z-score) [29]: -0.314
- glycan array binding signal (z-score) [30]: 0.209
- glycan array binding signal (z-score) [31]: -0.141
- glycan array binding signal (z-score) [32]: -0.19
- glycan array binding signal (z-score) [33]: -0.411
- glycan array binding signal (z-score) [34]: -0.383
- glycan array binding signal (z-score) [35]: -0.321
- glycan array binding signal (z-score) [36]: -0.324
- glycan array binding signal (z-score) [37]: -0.338
- glycan array binding signal (z-score) [38]: -0.344
